# Measured values taken from PubChem BioAssay AID686978 (National Center for Advancing Translational Sciences (NCATS), 2013).
# Among all 420,000 compounds or so, about 64,000 (15%) were called active. Inconclusive means that the source gave no clear call. Such entries were picked first, then a sample of the others. The call rests on the fitted dose curve; in most records, active means well fitted inhibition curve with a large enough effect; inconclusive means small, poorly fitted or top-dose-only effect; inactive means flat fitted curve, though single readings scatter. Potencies of inconclusive entries are left out as doubtful fits.
# Test: qHTS for Inhibitors of human tyrosyl-DNA phosphodiesterase 1 (TDP1): qHTS in cells in absence of CPT; further: nearly all actives have a fitted effect of over 55% in size
# Settings: DT40 Tdp1-/- hTDP1 cells, no CPT, ATP luminescence, 48 h
# Procedure, shortened: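 DT40 Tdp1-/-;hTDP1 cells, no CPT (DMSO vehicle only), 400 cells/well; compounds pin-transferred; ≥48 hr, 37 °C; CellTiter-Glo 30 min RT dark, luminescence read.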
# [1] = activity change, negative = growth inhibition: at 46.2 µM (top of the series) unless noted
# On the % scale 0 is the no-effect control and ±100 the full control effect; potency means the concentration at half of the fitted maximal effect; tags describe the fitted curve by direction and shape.
structure (smiles),measurement,setting,value
CCCCN(CC)CCNC(=O)c1cc2c(=O)n(CC)c3ccccc3c2s1,Potency,[1],active: 20.6 µM
COc1cc(C(=O)NNC(=O)c2nn(C)c(=O)c3ccccc23)cc(OC)c1OC,Potency,[1],inactive
Cc1ccc(OCC(=O)Nc2ccc(S(=O)(=O)N3CCCCC3)cc2)c([N+](=O)[O-])n1,Potency,[1],"inconclusive [inhibitor, partial curve]"
COC(=O)C1CCN(C(=O)COC(=O)c2oc3ccc(OC)cc3c2C)CC1,Potency,[1],inactive
O=C(Cc1ccc(-n2c(=O)c3sccc3n(CC(=O)Nc3ccccc3F)c2=O)cc1)NCc1ccco1,Potency,[1],inactive
CS(=O)(=O)N1CCN(Cc2ccc([N+](=O)[O-])cc2)CC1,Potency,[1],inactive
COc1cccc2c(=O)c3ccccc3oc12,Potency,[1],inactive
Cc1ccc(S(=O)(=O)NCC2CCC(C(=O)NCCCOC(C)C)CC2)cc1 (configuration not stated),Potency,[1],inactive
COc1cccc(OC)c1OCCCOc1ccc([N+](=O)[O-])cc1Cl,Potency,[1],"inconclusive [inhibitor, single point]"
C=CCN1C(=O)c2oc3ccccc3c(=O)c2C1c1ccc(O)c(OC)c1 (configuration not stated),Potency,[1],"inconclusive [inhibitor, partial curve]"
CCCC(=O)NC(=S)Nc1ccc(N2CCN(C(=O)c3cccs3)CC2)cc1,Potency,[1],active: 14.6 µM
O=C(Nc1nc2c(s1)CCCC2)c1cccc(S(=O)(=O)N2CCCc3ccccc32)c1,Potency,[1],active: 23.1 µM
Cc1ccc2c(c1)[C@H]1[C@H](CO2)[C@H](c2ccccc2)[C@]2(C)C(=O)N(Cc3ccccc3)CC(=O)N12,Potency,[1],"inconclusive [inhibitor, single point]"
Cc1nc(SCCOc2ccccc2F)[nH]c(=O)c1Cc1ccccc1,"activity change, negative = growth inhibition",[1],inconclusive: -21.6% [inhibitor]
same,"activity change, negative = growth inhibition",at 46.2 µM (top of the series),inactive: -11.6%
COc1ccc(S(=O)(=O)N2CCN(c3nc(-c4cccs4)nc4ccccc34)CC2)cc1OC,Potency,[1],"inconclusive [inhibitor, partial curve]"
C=CCNc1nc(Cl)nc(Nc2ccc(OC)cc2OC)n1,Potency,[1],"inconclusive [inhibitor, partial curve]"
CCCc1cc(=O)[nH]c(-n2[nH]c3c(c2=O)CCCC3)n1,Potency,[1],active: 20.6 µM
O=C(CN1C(=O)c2cccc3cccc1c23)Nc1ccc(S(=O)(=O)N2CCOCC2)cc1,Potency,[1],inactive
O=C(CSCc1ccccc1)N/N=C/c1cc2c(cc1Br)OCO2,Potency,[1],active: 18.4 µM
O=C(Nc1ccc(Br)cc1)c1ccc2c(c1)OCO2,Potency,[1],inactive
CCCCNCCOc1ccccc1-c1ccccc1,Potency,[1],"inconclusive [inhibitor, single point]"
